Reference: publication PMC4336329 (PLoS ONE, 2015)
The whole screen tested about 310,000 compounds, of which about 14,000 (4.5%) showed an effect of 50% or more. Effects have a minus sign here. The list shows a part of the results.

Each compound was assayed against human ether-à-go-go-related gene (hERG) potassium channel (human, UniProt Q12809) (assay: primary screen, population patch clamp on CHO cells stably expressing hERG).
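Note: peak tail current of the secondary pulse compared with the same well before compound.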

Chain of human ether-à-go-go-related gene (hERG) potassium channel (Q12809 whole entry, looked up): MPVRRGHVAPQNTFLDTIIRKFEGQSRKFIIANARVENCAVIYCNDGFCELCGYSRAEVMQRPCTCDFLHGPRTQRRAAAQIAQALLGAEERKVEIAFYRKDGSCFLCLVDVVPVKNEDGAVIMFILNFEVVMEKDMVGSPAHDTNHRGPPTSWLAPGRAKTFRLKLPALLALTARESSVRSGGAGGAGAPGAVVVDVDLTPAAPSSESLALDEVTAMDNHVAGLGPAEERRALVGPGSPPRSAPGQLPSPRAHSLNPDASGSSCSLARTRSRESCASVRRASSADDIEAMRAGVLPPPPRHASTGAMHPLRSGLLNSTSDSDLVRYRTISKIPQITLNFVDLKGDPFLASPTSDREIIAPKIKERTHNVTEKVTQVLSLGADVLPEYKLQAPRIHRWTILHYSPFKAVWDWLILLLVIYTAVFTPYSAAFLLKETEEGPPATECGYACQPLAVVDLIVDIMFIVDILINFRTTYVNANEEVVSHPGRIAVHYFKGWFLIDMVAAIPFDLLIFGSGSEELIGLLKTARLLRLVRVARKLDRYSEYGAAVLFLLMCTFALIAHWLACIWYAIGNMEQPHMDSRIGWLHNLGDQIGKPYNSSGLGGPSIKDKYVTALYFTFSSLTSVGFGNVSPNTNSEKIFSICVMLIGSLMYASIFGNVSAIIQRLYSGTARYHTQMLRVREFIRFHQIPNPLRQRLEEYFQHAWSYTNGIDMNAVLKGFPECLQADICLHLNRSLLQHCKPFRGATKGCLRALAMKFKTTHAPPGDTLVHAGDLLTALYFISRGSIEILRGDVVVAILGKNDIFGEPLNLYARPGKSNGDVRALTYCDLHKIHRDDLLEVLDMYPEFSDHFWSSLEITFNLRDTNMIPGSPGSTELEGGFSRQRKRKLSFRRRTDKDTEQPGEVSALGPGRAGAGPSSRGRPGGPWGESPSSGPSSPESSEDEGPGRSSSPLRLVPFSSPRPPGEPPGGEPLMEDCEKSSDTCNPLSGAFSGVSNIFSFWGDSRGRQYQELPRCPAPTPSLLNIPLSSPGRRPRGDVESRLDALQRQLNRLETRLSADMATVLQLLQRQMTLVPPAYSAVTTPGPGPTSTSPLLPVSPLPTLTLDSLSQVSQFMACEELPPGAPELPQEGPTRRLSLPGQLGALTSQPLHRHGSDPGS

SMILES | hERG current change (%, negative = inhibition) at 10uM
O=S(=O)(c1ccc(NC(=S)N/N=C/c2c3ccccc3cc3ccccc23)cc1)N1CCOCC1 | 8.09%
COc1cc(/C=C/C(=O)OCC(=O)Nc2cc(C)c(C)cc2[N+](=O)[O-])ccc1O | 10.2%
CC(Oc1ccc2ccccc2c1)C(=O)NNC(=S)NC(=O)c1ccco1 (stereo not drawn) | 7.62%
CC1=Nc2cc(C(=O)NCCCN3CCOCC3)ccc2Sc2c(C)ccc(C)c21 | 3.13%
COc1ccccc1NC(=O)c1csc2c1CCC(C)C2 (stereo not drawn) | 2.99%
CCCCn1c(N)c(N(CCOC)C(=O)c2cccc(S(=O)(=O)N(CC)c3ccccc3)c2)c(=O)[nH]c1=O | -7.55%
CC(/C=N/NC(=O)c1ccco1)=C\c1ccccc1 | 6.28%
COc1ccccc1-c1cc2ccccc2[nH]1 | 0.615%
COCCN(CCOC)S(=O)(=O)c1ccc(C(=O)Nc2ccc([N+](=O)[O-])cc2OC)cc1 | 2.81%
O=C(NCC1CCCCC1)C1(CC2CC(c3cccc(Br)c3)=NO2)CCNCC1 (stereo not drawn) | -24.1%
COc1ccc(CC(=O)Nc2cccc(-c3nnc(-c4ccco4)o3)c2)cc1 | 3.56%
CN(C)c1ccc(C(=S)N2CCCCCC2)cc1 | -5.79%
Cc1ccc(CN=C2NC(=O)C(CC(=O)NCCc3ccccc3)S2)cc1 (stereo not drawn) | -10.4%
N#Cc1c(N)nc(N)nc1Nc1ccc(Br)cc1 | 4.83%
CCOC(=O)c1ccc(NC(=O)C2=C(C)Nc3nc(CCCO)nn3C2c2cccc(C)c2)cc1 (stereo not drawn) | 1.07%
CCc1nn(C(C)C(=O)NCCN2CCCCCC2)c(=O)c2cc3occc3n12 (stereo not drawn) | 6.27%
COc1ccc(/C=C/C(=O)c2ccccc2)cc1COc1ccccc1F | -3.03%
Cc1nc(-c2cccs2)ccc1C(=O)O | -2.45%
CCOC(=O)c1cc2c(ccn2C)n1Cc1ccccc1Cl | 28.8%
CCc1ccccc1N1CCN(S(=O)(=O)c2ccc(F)c(C)c2)CC1 | 4.43%
O=C(NCc1ccco1)c1cccc(NC(=O)c2ccccc2)c1 | -19.5%
COC(=O)c1nc2n(n1)C(c1ccccc1OC)C1=C(CCCC1=O)N2 (stereo not drawn) | 4.21%

SMILES | hERG current change (%, negative = inhibition) at 10uM
COc1ccc(NS(=O)(=O)c2cccc3ccccc23)cc1 | 8.31%
O=C(COC(=O)Cc1ccccc1F)NNC(=O)c1ccc(Cl)cc1 | 1.22%
O=C1CCCC2=C1C(c1ccc3c(c1)OCO3)c1c([nH]n(-c3ccccc3)c1=O)N2 (stereo not drawn) | 3.47%
O=C(NC1CCSC1=O)c1ccc(Oc2cccc(C(F)(F)F)c2)nc1 (stereo not drawn) | -29.4%
CCOC(=O)C1(CCOC)CCN(Cc2ccccc2-c2ccco2)CC1 | -22.4%
CSCCC1NC(=O)NC1=O (stereo not drawn) | 8.42%
O=S(=O)(NCCC1=CCCCC1)c1ccc(F)cc1 | -5.81%
O=C(Nc1ccccc1N1CCOCC1)c1csc2c1CCCC2 | -0.704%
O=C(COC(=O)c1ccccc1Cl)Nc1ccc2[nH]c(=O)[nH]c2c1 | -2.94%
COc1ccc(CCNC(=O)[C@@H](NC(=O)N2CC(=O)Nc3ccccc32)C(C)C)cc1OC | 16.8%
CCCc1nc2nc(C)c(NS(=O)(=O)c3ccc([N+](=O)[O-])cc3)c(=O)n2[nH]1 | 13.9%
CCc1ccc(Nc2nnc(SCC(=O)Nc3cccc(S(=O)(=O)NC4=NCCCCC4)c3)s2)cc1 | 11.6%
CCOc1cc(N2CCOCC2)c(OCC)cc1NC(=O)c1ccccc1 | 15.7%
COc1ccc(OCCCC(=O)Nc2ccc(N3CCCCC3)cc2)cc1.Cl | -1.87%
Cc1cc(S(=O)(=O)N2CCCOC2CNC(=O)C(=O)NCc2cccs2)ccc1F (stereo not drawn) | 13.4%
COc1cccc(NC(=O)CN(C)C(=O)c2cc3c(s2)CCCCC3)c1 | -8.53%
Cc1ccc(-n2ncc3c(=O)n(-c4ccc(C)c(C)c4)c(-c4ccco4)nc32)cc1 | -3.38%
CCCOn1c(-n2nc(C)cc2C)nc2ccccc2c1=O | 8.66%
COc1ccc(CC(=O)N(CC2CCCO2)c2nc3ccccc3s2)cc1 (stereo not drawn) | -3.7%
CCC(CC)COC(=O)C1=C(C)NC(=O)NC1c1ccc(N(C)C)cc1 (stereo not drawn) | 27.8%
Cc1oc(-c2ccc(Cl)cc2)cc1C(=O)/C(C#N)=C/Nc1cccc(OC(F)(F)F)c1 | 1.1%
Cc1cccn2cc(CCNS(=O)(=O)c3ccc4c(c3)OCCO4)nc12 | -4.57%

SMILES | hERG current change (%, negative = inhibition) at 10uM
COc1ccccc1Nc1nc2nonc2nc1N1CCCCC1C (stereo not drawn) | 13%
CCOC(=O)N1CCN(S(=O)(=O)N(C)C)CC1 | 6.78%
COc1cccc(C2CC(c3ccc(C)cc3)n3ncnc3N2)c1 (stereo not drawn) | -21.4%
COc1ccccc1-n1ccnc(SCC(=O)NC2CCCCC2)c1=O | 9.93%
CCOc1ccccc1NS(=O)(=O)c1ccc(OC)c(OC)c1 | 15.4%
CCN(CC)S(=O)(=O)c1cccc(-c2nnc(SCC(N)=O)n2CCc2ccccc2)c1 | -37.3%
CC1CCN(C(=O)CNS(=O)(=O)c2ccc(Br)s2)CC1 | -20%
CCOC(=O)C1C(=O)CC(C)(O)C(C(=O)OCC)C1c1ccco1 (stereo not drawn) | -4.04%
CC(=O)Nc1cccc(Oc2cc(C#N)c(C#N)cc2N2CCOCC2)c1 | -19.8%
COc1ccc(C(=O)N/N=C/c2sc3ccccc3c2O)cc1 | 0.939%
Cn1c(N)c(-c2nc3cccnc3n2C)sc1=S | 62.2%
O=C1C2CCCN2C(=S)N1C1CCCCC1 (stereo not drawn) | -3.32%
COc1ccc(CCNC(=O)CSc2n[nH]c(N)n2)cc1OC | 30.1%
CCOc1ccccc1N(C(=O)CNC(=O)c1ccco1)C(C(=O)NC(C)(C)C)c1ccncc1 (stereo not drawn) | 5.92%
S=c1[nH]nc(-c2cc(-c3ccccc3)n[nH]2)n1/N=C/c1ccccc1 | 23.8%
CCOC(=O)/C(C#N)=N/Nc1ccc(S(=O)(=O)N2CCc3ccccc32)cc1 | 2.18%
CCCC(=O)OCCNc1cc(Sc2nccn2C)c2nonc2c1[N+](=O)[O-] | 3.02%
CCSc1nnc(-c2sc3nnc(-c4ccccc4)c(-c4ccccc4)c3c2N)o1 | 15.6%
COc1ccc(CN2C(=O)[C@@H]3C(c4ccc(F)cc4)=NO[C@@H]3C2=O)cc1 | 5.66%
CCC(C)(C)n1nnnc1CN1CCC(O)(c2cccc(C(F)(F)F)c2)CC1 | 16.9%
Nc1cc(=O)nc(SCC(=O)Nc2cccc3ccccc23)n1CCc1ccccc1 | -7.07%
Cc1ccc(OCC(=O)N(C)CC(=O)Nc2ccc(N3CCOCC3)cc2)cc1 | 8.02%

SMILES | hERG current change (%, negative = inhibition) at 10uM
O=C(Nc1ccc2c(c1)OCCO2)C1CC(c2ccc(F)cc2)=NO1 (stereo not drawn) | 12.3%
CC(=O)Nc1cc(NC(C)=O)cc(C(=O)OCC(=O)N(c2ccccc2)C2CCS(=O)(=O)C2)c1 (stereo not drawn) | 6.26%
Cc1ccc(NC(=O)COC(=O)c2ccc3c(c2)OCCO3)cc1 | -2.92%
C=CCn1c(=O)c(C(=O)Nc2ccccc2O)c(O)c2ccccc21 | 13.9%
CC(C)NC(=O)CN(C(=O)CCC(=O)Nc1ccccn1)c1ccc(F)c(Cl)c1 | 10.4%
COc1ccc2c(c1)O/C(=C\c1sccc1C)C2=O | 1.08%
COc1ccc(N2CCN(C(=O)c3ccc(NS(=O)(=O)c4ccc(F)cc4)cc3)CC2)cc1 | -40.5%
Cc1ccc(C)c(CNc2ccc(S(=O)(=O)N3CCCCC3)cc2)c1 | 3.98%
CC(C)(C)C(=O)c1cnc(Nc2ccccc2Cl)s1 | 2.2%
COc1ccc(-n2c(COc3cccc4ccccc34)nnc2SC(C)C(=O)O)cc1 (stereo not drawn) | 5.74%
CC(C)(C)n1ncc2c(=O)n(Cc3ccc(Cl)cc3Cl)cnc21 | 14.5%
CC(OC(=O)Cc1n[nH]c(=O)c2ccccc12)C(=O)Nc1cc(Cl)cc(Cl)c1 (stereo not drawn) | -16.8%
O=C(Nc1ccccc1Cl)C1CCCN1C(=O)OCc1ccccc1 (stereo not drawn) | 17.4%
COc1ccc(C(=O)NC(=S)NCC2CCCO2)cc1 (stereo not drawn) | 5.02%
Cc1cc2nc(-c3ccc(SCc4ccc(C#N)cc4)nc3)[nH]c2cc1C | -6.28%
COc1cccc(-c2nnn(C/C(N)=N/O)n2)c1 | 14.8%
CC(CCc1ccc(O)cc1)NC(c1ccccc1)c1ccc(Cl)cc1 (stereo not drawn) | -14.3%
COc1ccc2c(CCNC(=O)c3ccco3)c[nH]c2c1 | -1.53%
COc1ccc(N(C(=O)CNC(=O)c2ccco2)C(C(=O)NCC2CCCO2)c2ccccc2)cc1OC (stereo not drawn) | 5.07%
CNC(=O)NC(=S)NC(=O)c1ccc(OC)cc1 | 2.01%
CCC1Oc2ccccc2N(CC(=O)N2CCOCC2)C1=O (stereo not drawn) | 11%
